Reference: a compilation of properties of binary mixtures (doi:10.1007/s10953-010-9562-5)
Some of these densities may be calculated back from excess volumes.

Experiment: xn = mol fraction of the nth substance listed
Details: 101 kPa

CCCC[N+]1(C)CCCC1.O=S(=O)([N-]S(=O)(=O)C(F)(F)F)C(F)(F)F + CC1COC(=O)O1
mass density [kg/m3]
Details | 293.15 K | 298.15 K | 303.15 K | 308.15 K | 313.15 K | 318.15 K
x1 = 0.01 | 1230.9 | 1226 | 1221.1 | 1216 | 1211.1 | –
x2 = 0 | – | 1382 | 1378 | 1374 | 1370 | –
x2 = 0.05 | 1386.4 | 1381.2 | 1376.7 | 1372.2 | 1367.7 | –
x2 = 0.11 | 1385.6 | 1380.3 | 1375.5 | 1370.7 | 1365.8 | 1360.8
x2 = 0.16 | 1384.5 | 1379.3 | 1374.3 | 1369.3 | 1364.3 | 1359.2
x2 = 0.21 | 1383.3 | 1378.1 | – | 1367.9 | – | 1357.9
x2 = 0.26 | 1381.8 | 1376.7 | 1371.6 | 1366.5 | 1361.5 | 1356.5
x2 = 0.32 | 1380 | – | 1370 | 1364.9 | – | 1354.9
x2 = 0.37 | 1377.8 | – | 1367.9 | – | 1358 | 1353
x2 = 0.42 | 1375 | – | – | 1360.3 | 1355.4 | 1350.5
x2 = 0.47 | 1371.5 | 1366.6 | 1361.8 | 1356.9 | – | –
x2 = 0.53 | – | 1362.1 | 1357.3 | 1352.4 | 1347.6 | 1342.6
x2 = 0.58 | 1361.1 | 1356.2 | 1351.4 | 1346.6 | 1341.8 | 1336.7
x2 = 0.63 | 1353.7 | – | – | 1339.1 | 1334.2 | 1329.1
x2 = 0.68 | 1344.4 | 1339.5 | 1334.6 | 1329.6 | 1324.7 | 1319.5
x2 = 0.74 | 1332.8 | 1327.8 | – | 1317.9 | 1312.9 | 1307.6
x2 = 0.79 | – | 1313.5 | 1308.4 | 1303.4 | – | 1293
x2 = 0.84 | 1301.1 | 1296 | – | 1285.8 | – | 1275.4
x2 = 0.89 | 1280 | 1274.9 | 1269.8 | 1264.6 | 1259.5 | –
x2 = 0.95 | 1254.8 | 1249.7 | 1244.6 | 1239.5 | 1234.5 | 1229.4
x2 = 0.96 | 1248.3 | 1243.2 | 1238.1 | 1233.1 | 1228 | 1223
x2 = 0.97 | 1242.7 | 1237.6 | 1232.6 | 1227.6 | – | –
x2 = 0.98 | 1236.9 | 1231.9 | 1226.9 | 1221.9 | 1216.9 | 1211.9

CC1COC(=O)O1 (stereo unspecified) + CCCC[N+]1(C)CCCC1.O=S(=O)([N-]S(=O)(=O)C(F)(F)F)C(F)(F)F
x1 = 1
Details | mass density [kg/m3]
298.15 K | 1219.9
308.15 K | 1210
318.15 K | 1200.2
